# Out of some 76,000 compounds screened, about 1,900 (2.5%) were called active. This list was built around the results that the source calls inconclusive (neither active nor inactive); the mix of calls is not that of the screen. The call rests on the fitted dose curve; in most records, active means well fitted inhibition curve with a large enough effect; inconclusive means small, poorly fitted or top-dose-only effect; inactive means flat fitted curve, though single readings scatter. Potencies of inconclusive entries are doubtful fits and often do not repeat.
# Target: Luciferin 4-monooxygenase (Photinus pyralis) (UniProt P08659)
# UniProt P08659, sequence (P08659 whole entry, looked up): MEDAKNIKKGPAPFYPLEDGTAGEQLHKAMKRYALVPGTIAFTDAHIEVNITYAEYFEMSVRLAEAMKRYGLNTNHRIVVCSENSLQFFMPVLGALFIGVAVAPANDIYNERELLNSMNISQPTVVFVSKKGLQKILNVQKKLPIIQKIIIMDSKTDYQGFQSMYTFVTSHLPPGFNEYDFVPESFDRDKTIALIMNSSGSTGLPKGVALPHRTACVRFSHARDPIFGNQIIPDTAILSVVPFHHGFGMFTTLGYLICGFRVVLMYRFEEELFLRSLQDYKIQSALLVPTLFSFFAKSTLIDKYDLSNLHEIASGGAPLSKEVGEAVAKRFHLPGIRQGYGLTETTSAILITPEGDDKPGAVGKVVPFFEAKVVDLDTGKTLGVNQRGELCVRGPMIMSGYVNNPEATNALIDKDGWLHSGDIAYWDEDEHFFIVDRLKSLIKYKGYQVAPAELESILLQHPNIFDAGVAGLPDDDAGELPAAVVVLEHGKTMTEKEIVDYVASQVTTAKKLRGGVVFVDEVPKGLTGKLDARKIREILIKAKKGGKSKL
# Experiment: Firefly luciferase inhibition profiling of diverse chemical library using quantitative high-throughput screening; further: nearly all actives have a fitted effect of over 65% in size
# Conditions: purified P. pyralis luciferase, luminescence, biochemical; series mostly up to 115 µM
# Summary of the method: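 Biochemical qHTS: compound (6-point titration) added to 10uM D-luciferin plus 10uM ATP in Tris acetate pH 7.5 buffer with Mg, Tween-20 and BSA, then purified enzyme at 10nM; light output imaged.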
# Potency means the concentration at half of the fitted maximal effect; tags describe the fitted curve by direction and shape.
row,Compound,Potency
1,CN(C)C(=O)c1cnn2ncccc12,"inconclusive: 112 µM [inhibitor, partial curve]"
2,Cc1cccc(N(C)c2ccc3nnc(-c4cc(C#N)ccn4)n3n2)c1,inactive
3,O=C(N[C@@H]1CN(c2ncccn2)C[C@H]1CO)c1cc2ccccc2[nH]1,"inconclusive: 3.16 µM [inhibitor, full curve, poor fit]"
4,O=C(NCc1c[nH]c2ncccc12)c1ccc2c(c1)OCO2,"inconclusive: 112 µM [inhibitor, partial curve, poor fit]"
5,O=C(Nc1cc(F)cc(F)c1)c1cnc(-c2ccc(F)cc2)nc1-c1ccncc1,"inconclusive: 70.8 µM [inhibitor, partial curve, poor fit]"
6,O=C(c1[nH]ncc1Cl)N1CCOC(Cc2cccc(C(F)(F)F)c2)C1 (stereo not drawn),active: 12.6 µM
7,Cc1nn(-c2ccc(C(C)C)cc2)c(C)c1[C@@H]1C=C[C@@H](NCc2cccc(C#N)c2)C1,"inconclusive: 79.4 µM [inhibitor, partial curve, poor fit]"
8,O=C(Nc1ccccc1)c1nc2c(o1)CCN(Cc1ccccn1)CC2,active: 3.98 µM
9,Cn1cccc1C(=O)NC1CCCN(c2cc(-c3ccc(F)cc3)[nH]n2)C1 (stereo not drawn),"inconclusive: 56.2 µM [inhibitor, partial curve]"
10,O=C(O)CCn1ncc2cc(OC3CCN(C(=O)OC4CCCC4)CC3)ccc21,"inconclusive: 89.1 µM [inhibitor, partial curve]"
11,OC(c1nc(Nc2cccc(C(F)(F)F)c2)n[nH]1)C1CC1 (stereo not drawn),"inconclusive: 70.8 µM [inhibitor, full curve]"
12,CC(C)(C)NC(=O)Cn1ccn2nc(-c3ccccc3)c(CO)c2c1=O,inactive
13,Cc1ccc(NC(=O)Nc2ccc(C)n(CC(=O)NC3CCCC3)c2=O)cc1,active: 0.398 µM
14,COc1ccc(-c2cc(N3CCCC(NC(=O)COc4ccccc4)C3)n[nH]2)cc1 (stereo not drawn),"inconclusive: 39.8 µM [inhibitor, partial curve]"
15,O=C(O)CCn1ncc2cc(OC3CCN(C(=O)C4CCCC4)CC3)ccc21,"inconclusive: 89.1 µM [inhibitor, partial curve, poor fit]"
16,Cc1cnc(C(=O)N[C@@H]2CCC[C@@H]2C(=O)Nc2cccc(F)c2C)cn1,"inconclusive: 50.1 µM [inhibitor, partial curve]"
17,Cc1ccc(C(=O)NC2CCCN(c3cc(-c4ccc(Cl)cc4)[nH]n3)C2)cn1 (stereo not drawn),"inconclusive: 6.31 µM [inhibitor, full curve]"
18,C[C@@H]1CN(C(=O)CCCc2ccccc2)C[C@@]1(O)C1CC1,"inconclusive: 50.1 µM [inhibitor, partial curve]"
